# Paper PMC4336329 (PLoS ONE, 2015)
# Out of some 310,000 compounds screened, about 2,200 (0.71%) showed an effect of 50% or more. Effects have a minus sign here. The list shows a part of the results.
# Target: human ether-à-go-go-related gene (hERG) potassium channel (human, UniProt Q12809)
# Assay: primary screen, population patch clamp on CHO cells stably expressing hERG
# Sequence of human ether-à-go-go-related gene (hERG) potassium channel (Q12809 whole entry, looked up): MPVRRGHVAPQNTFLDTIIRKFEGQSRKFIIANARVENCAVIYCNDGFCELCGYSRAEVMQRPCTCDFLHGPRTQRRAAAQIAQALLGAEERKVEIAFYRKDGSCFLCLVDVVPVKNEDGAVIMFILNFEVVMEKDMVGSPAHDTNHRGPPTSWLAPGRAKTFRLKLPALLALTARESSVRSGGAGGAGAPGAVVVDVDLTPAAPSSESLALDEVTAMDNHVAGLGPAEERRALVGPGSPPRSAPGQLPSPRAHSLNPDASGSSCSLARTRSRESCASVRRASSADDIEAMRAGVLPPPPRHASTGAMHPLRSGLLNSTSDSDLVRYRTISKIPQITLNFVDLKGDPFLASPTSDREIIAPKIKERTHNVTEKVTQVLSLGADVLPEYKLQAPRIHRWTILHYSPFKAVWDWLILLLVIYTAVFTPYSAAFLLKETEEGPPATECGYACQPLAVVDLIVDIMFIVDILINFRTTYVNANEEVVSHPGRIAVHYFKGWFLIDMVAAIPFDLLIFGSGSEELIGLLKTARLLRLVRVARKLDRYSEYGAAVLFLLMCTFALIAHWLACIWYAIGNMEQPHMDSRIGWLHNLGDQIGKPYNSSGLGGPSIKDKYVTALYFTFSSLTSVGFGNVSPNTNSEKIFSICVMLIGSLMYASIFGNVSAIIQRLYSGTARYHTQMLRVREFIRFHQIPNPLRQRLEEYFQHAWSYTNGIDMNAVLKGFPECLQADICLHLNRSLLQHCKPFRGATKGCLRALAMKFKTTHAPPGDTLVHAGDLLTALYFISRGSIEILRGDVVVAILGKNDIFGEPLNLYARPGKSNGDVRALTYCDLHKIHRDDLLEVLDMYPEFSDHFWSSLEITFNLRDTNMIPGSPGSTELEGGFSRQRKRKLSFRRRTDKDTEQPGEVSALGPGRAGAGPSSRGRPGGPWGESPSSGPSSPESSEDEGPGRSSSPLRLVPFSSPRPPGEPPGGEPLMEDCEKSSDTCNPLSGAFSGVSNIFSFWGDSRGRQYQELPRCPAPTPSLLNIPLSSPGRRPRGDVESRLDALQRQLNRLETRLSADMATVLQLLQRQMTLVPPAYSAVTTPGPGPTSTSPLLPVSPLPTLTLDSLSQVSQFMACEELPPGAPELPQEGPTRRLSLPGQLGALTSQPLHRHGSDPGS
row,SMILES,"hERG current change (%, negative = inhibition) at 1uM"
1,Cc1cc(C(=O)NC(C)CCc2ccccc2)ccc1[N+](=O)[O-] (stereo not drawn),11.2%
2,CCN(Cc1ccccc1)C(=O)c1cccc(S(=O)(=O)N2CCN(c3ccccc3)CC2)c1,-7.63%
3,CCCCn1c(N)c(N(CCOC)C(=O)CSc2ccccc2C)c(=O)[nH]c1=O,4.8%
4,COC(=O)c1c(NC(=O)C2CCCO2)sc2c1CCC2 (stereo not drawn),8.99%
5,Nc1c2c(nc3ccc(Br)cc13)N(Cc1ccccc1)CC2,2.31%
6,Cc1nc(Nc2ccc(S(=O)(=O)N3CCCC3)cc2)c2nnn(Cc3ccccc3)c2n1,15.9%
7,COc1ccc(/C=C2\C(=O)ON=C2c2ccccc2)cc1OC,9.99%
8,COc1ccc(-c2nnc(SCC(=O)Nc3ccccc3OC)o2)cc1,7.91%
9,CCOC(=O)CSc1ccc2nnc(-c3cccnc3)n2n1,-0.888%
10,Cc1c(Cl)c([N+](=O)[O-])nn1CC(=O)Nc1ccc2c(c1)OCO2,21.5%
11,CCn1cc(S(=O)(=O)CC(=O)NC2CCCCC2)c2ccccc21,14.5%
12,CCCCn1c(N)c(N(CC)C(=O)c2cccc(S(=O)(=O)N3CCN(C)CC3)c2)c(=O)[nH]c1=O,13.8%
13,COc1ccc2c(c1)c(/C=N/Nc1nc3ccccc3[nH]1)c(C)n2C,10.8%
14,Cc1ccc(S(=O)(=O)N2CCOC23CCN(C(=O)C(=O)NCCC(C)C)CC3)cc1,4.48%
15,CCn1ccnc1CNC(=O)CC1C(=O)NCCN1CC(c1ccccc1)c1ccccc1 (stereo not drawn),8.81%
16,Cc1ccc(NC(=O)CC(=O)c2ccc([N+](=O)[O-])cc2)cc1S(=O)(=O)Nc1cccc(Cl)c1,6.52%
17,Cc1ccc(Nc2nc3nonc3[nH]c2=O)cc1Cl,15.8%
18,O=C(COC(=O)c1ccc(Cl)c(Cl)c1)NC1CCCC1,16.8%
19,COC(=O)c1cc(N=CC2=C(O)CC(C)(C)CC2=O)cc(C(=O)OC)c1,7.19%
20,Cc1cccc(NC(=O)CCc2nnc3ccc(NCc4ccco4)nn23)n1,12.6%
21,CCOc1ccc(C(=S)N2CCOCC2)cc1,5.79%
22,Cc1cc(C(=O)N/N=C/c2ccc(-c3ccccc3Cl)o2)n[nH]1,1.12%
23,Cc1ccc(NC(=O)Cn2c(=O)n(CCCC(=O)NCc3ccco3)c(=O)c3ccccc32)cc1,1.54%

row,SMILES,"hERG current change (%, negative = inhibition) at 1uM"
1,O=C(Nc1ccc(N2CCOCC2)cc1N1CCOCC1)c1cccs1,13.4%
2,Cc1ccc(Cl)cc1N(CC(=O)NC1CCCCC1)S(C)(=O)=O,13.4%
3,CCOc1ccc(NC(=O)CSc2ncc(-c3ccc(F)cc3)n2Cc2ccco2)cc1,8.18%
4,O=C(COC(=O)CN1C(=O)C2CC=CCC2C1=O)Nc1cc(C(F)(F)F)ccc1N1CCOCC1 (stereo not drawn),-0.0496%
5,O=C(/C=C/C(=O)N1CCc2ccccc2C1)N1CCc2ccccc2C1,-3.15%
6,CCOc1ccccc1/C=C(\NC(=O)c1ccccc1)C(=O)NCCC(=O)O,3.06%
7,COC(=O)C1=C(c2ccc(F)cc2OCc2ccccc2)C[C@@H]2CC[C@H]1N2C(=O)N1CCCC1,7.01%
8,CC(C)(C)n1nnnc1SCC(=O)Nc1nn(-c2ccccc2)nc1C(N)=O,0.356%
9,CCOC(=O)COc1ccccc1-c1ccno1,4.52%
10,COc1ccc(N(C(=O)CCl)C(C(=O)NCCc2ccccc2)c2cccs2)cc1 (stereo not drawn),-2.86%
11,COc1ccc(N=C2C(=O)N3CCCc4cccc2c43)cc1,-3.11%
12,O=C(NNc1ncnc2c1cnn2-c1cccc(Cl)c1)c1ccco1,14.4%
13,CC(=O)c1cnc2n(c1=O)CCS2,15.5%
14,C/C(=N\N=C1\NC(=O)C(CC(=O)NCc2ccccc2)S1)C(C)C (stereo not drawn),11.7%
15,O=C(C[n+]1cccc(O)c1)Nc1ccc(Br)cc1.O=S(=O)([O-])c1ccc2ccccc2c1,14.4%
16,COC(=O)[C@H](CCSC)NC(=O)Nc1ccc(OC)cc1OC,6.47%
17,CCOc1ccc(/C=N/n2nnnc2N)cc1OCC,11.2%
18,Cc1ccccc1CC(=O)Nc1sc(C(C)C)cc1C(=O)N1CCOCC1,2.93%
19,COc1cc(CC(NC(C)=O)C(=O)NC2CCN(c3c(Cc4ccccc4)c(C)nc4ncnn34)CC2)cc(OC)c1 (stereo not drawn),14.3%
20,Cc1cc(=O)[nH]c2c(C)cc(S(=O)(=O)N3CCOCC3)cc12,12%
21,COC(=O)C1=C(C)N(CCc2ccc(OC)c(OC)c2)C(=O)/C1=C\N(C)C,5.97%
22,Cc1cc2c(ccc3[nH]onc32)n1,16.3%
